Test results published in the supplement of paper PMC11417369.
This is one part of the list.

Each sequence was assayed on PfAP2-HC AP2 domain (GST-tagged) (assay: gcPBM binding intensity (ln(normalized median fluorescence intensity)); higher = stronger DNA binding).
Method in brief: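 The binding buffer was 1× PBS containing 1% milk, 0.2 mg/ml BSA, 0.5% salmon testes DNA and 0.03% Triton X-100. In it, GST-tagged P. falciparum DNA-binding domains expressed in E. coli were applied for 1 h to an Agilent 4 × 180k array of primer-extended double-stranded 36-bp intergenic genomic probes plus negative controls. Binding intensity, read with Alexa488 anti-GST antibody and a 488 nm scan, is the highest Masliner-normalised natural-log median intensity across replicate spots of either probe orientation.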

Sequence | gcPBM binding intensity (ln)
CTATCATATTTATGCACACAAAAATAATTAATTCGT [CACACA_site2614] | 9.82
ACCTGTTCATATGATCGTACACGTCAGTTTATATGA [XGTACX_site3869] | 9.96
TATTTTGAGAATAAATGTACGAATTTTATATTTAAA [XGTACX_site1336] | 9.25
ATTCAAATATTAAAAAGTACAAAAAAAAAACAAAAA [XGTACX_site1174] | 9.53
ATATAATTATTGATATGTACATATTTGTTCTAGTTT [XGTACX_site3012] | 9.79
ACAACACTATATTACACATGCATTAAGAGAGTGAAC [TGCATGCA_site124] | 9.84
ACATTAAAATATGATTGTACATTTTATTATATTATA [XGTACX_site912] | 9.6
ATAATTATTTTAGAAACACACAAATTAGAAAAAACA [CACACA_site3636] | 9.76
TAAAATAAAAATTAAAGTACATATGTATATATATAT [XGTACX_site3984] | 9.81
GAGTATTCAAGTATTAGTACATATTATATAATAAAT [XGTACX_site7630] | 9.65
AATCCTTACGGACACACACACACGAATAAATAAAAA [CACACA_site4422] | 11
TACAAAATGGGGAACACACACATATATAAATAAATA [CACACA_site7751] | 11.1
TTTTTTTCTAATTATGCACACATATCAAAATATTCA [CACACA_site8886] | 9.74
ATATTTATTATATAATGTACAAAAAAAAAAAAAAAA [XGTACX_site629] | 9.13
AAATATAAAAGTATATGTACATATATATATATATAT [XGTACX_site7446] | 9.88
AATAAATAGATATATACACACATATATCTATAATAT [CACACA_site6557] | 9.88
CATATTCCCCCCCACACACACACACCCATACATACC [CACACA_site2303] | 10.6
CGTGTGTCCCCCTTAATCATCCAATCGTTCATTTTG [CACACA_negctrl_site1008] | 9.85
TATATAATGGTAAAAACACACAAATATGAAGATGTT [CACACA_site722] | 9.83
AGAGGATCATAGTTATGTACACATATTTAACATAAA [XGTACX_site7232] | 9.65
TCTTCATTTTTATGTGCATGTAAAATTTTTTTTTTT [TGCATGCA_site963] | 9.63
GACAATAAAAAGAAAAGTACATATATAAATTAACCA [XGTACX_site7858] | 9.65
TTTTTATAAAAATTATTAAAAAAATTATTTATAGCT [CACACA_negctrl_site265] | 9.22

Sequence | gcPBM binding intensity (ln)
AAATATATTATTATCTTATCAATTAAAAGAATAAAC [CACACA_negctrl_site779] | 9.54
TAGCGCATAAAAAAAAAAAAATATATACTAATAAAT [GTGCAC_negctrl_site276] | 9.47
TTTTTTTTCAATCTCTATATATTAAGGTTTATATTT [XGTACX_negctrl_site397] | 9.59
TTACTTAAATATAAGTGTCCTCAAAAAAAAAAAAAA [XGTACX_site460] | 9.11
AATATAAGTTTATTAGTGCACAGATAAATATATATT [GTGCAC_site9784] | 9.84
ATTTTTTATATTAATTGTACATTGTATATATATATA [XGTACX_site8702] | 9.75
ATGTATGTTTTTTTTTTATTGTTCAAAAAGTTGAAG [CACACA_negctrl_site1276] | 9.46
TGAGTTACATACTAATGTACACAACAAAAAAAAAAA [XGTACX_site2390] | 9.59
TTTTTTTGAACATATACACACTCTAAACTTATACAT [CACACA_site3917] | 9.78
AAAGGTTTATATGATACACACATAAGTGATCAGGTT [CACACA_site190] | 9.77
AAAAACTAATCTTTAACATGCAACCGTTTATACATA [TGCATGCA_site363] | 9.54
AAAAATTATGGACACACACACATATATATATATATT [CACACA_site4717] | 10.3
GGTATACGCAAGTATACACACATATATATATATATA [CACACA_site3240] | 9.68
AATAAAATAAAATACACACATACATACATACAAATG [CACACA_site2438] | 11.2
TAATTTATGACACGCGCACACATATATATATAGTAA [CACACA_site4249] | 9.92
ACCCATAAAAAGGATACACACACACCCACCCATATA [CACACA_site8205] | 10.6
ATATATATATTTGTATGTACATATATATATTCGTAT [XGTACX_site1640] | 9.72
TTTCCTTATTAAAACACACAAATACATTATTTAATC [CACACA_site7080] | 9.7
ACTGTAAAAGGATTTACACACATATTTACATTTACA [CACACA_site519] | 9.91
TACCAATGCATAACGGTGCAAAAAAATAAGGAATAA | 9.61
ATGCATATAACTACGTGTACAAATATACACAAATAC [XGTACX_site8811] | 9.79
GTACGATAAAAAATTGGACAAAAAAAAAAAAAAAAT [XGTACX_negctrl_site158] | 9.59
ATTTCATAAATTAAACGTACATAATACACACACATG [XGTACX_site4155] | 11

Sequence | gcPBM binding intensity (ln)
TAAAACAACAAAGAAAATGAAAAAGTAAAAACATAT [CACACA_negctrl_site1049] | 9.77
TTTTGCAATAATGTTGCACACTAAATAGTCATCTAT [CACACA_site4304] | 9.73
TTTTGTTATTTTTTAGTGCATATAAAGGTTGTTAAG | 9.39
ACATTTTTTTCATATCGTACATATTATAATATTTTC [XGTACX_site6524] | 9.84
AAAAAAAAAAAAGGAGGTACACAATTTTATATATGC [XGTACX_site5296] | 9.66
ACAAGTCAGGCAAAAACATGCATTATTTGAACATTA [TGCATGCA_site864] | 9.68
GAGCATTACCCATATACACACATATATATAAACCTA [CACACA_site2737] | 9.98
ATTATATTAAAATACACACCCAAATATTAAAAAGAT [CACACA_site5613] | 10.1
TGATAAAATGGGGAAATTCATTATATCATATCTTGG [CACACA_negctrl_site789] | 9.5
TTGGATAAAAAATATGTACACACATATAGATATCTA [CACACA_site8862] | 9.7
TTTCTTCTTCTATTGTGTACGTAAAAAAAAAAAAAA [XGTACX_site772] | 9.09
TTTGAAATATTAAATGCATGTTAAAACATAAAAATG [TGCATGCA_site680] | 9.49
GGTAATTTCCTTTTTTGTACTCATAGAAGGATAATA [XGTACX_site89] | 9.35
TCAGATATATATATATAAATATATATTTTGAAATGT [CACACA_negctrl_site686] | 9.7
TAGTATCCAAGAAAAAGTACTTATTTTAATTTTTTA [XGTACX_site6243] | 9.42
TCATTTAAGTAGACGCGTACGGAAATTACGAATCCT [XGTACX_site144] | 9.65
AATATTTATAAAGACACACAAACAAAAAGGATAAAA [CACACA_site2985] | 10.3
ATTATTATATTTATATGTACATAGAAAAAATTAAAT [XGTACX_site2058] | 9.57
AAAAATAAAGGATATACACACTAATTATATATATAT [CACACA_site5550] | 9.91
AAGACTGCACTTTAAGCACACAAATATATTTTTTTT [CACACA_site8337] | 9.79
AAGAAAAAAATTTAATTAAATGAAATTTTTGAATTA [TGCATGCA_negctrl_site25] | 9.45
TTTTTTTTTTGTTGAGTGCAATTATTTGTAAGAAAA | 9.18
AAATTAATATATAAAAGTACCCATATATTTAATATA [XGTACX_site3551] | 9.36

Sequence | gcPBM binding intensity (ln)
AGTTTGTTTTTTTTTTTTTTTTCCTGTCACAAACAA [CACACA_negctrl_site1093] | 9.57
TCTCCACCTCTCTTGGTGCGTTATACCCTCGAGGCT | 9.71
TATAACAAAATATTCACACATATAAGTAAATAAAGG [CACACA_site5777] | 9.84
TCAAAGCACCCATACACACACATATATATATATATA [CACACA_site4317] | 10.5
GTCATATATATATGTACACACATATATATATTTATA [CACACA_site1459] | 9.81
GTACGTTACATAAATGTGCACATATTATATGCGAAG | 9.87
TTCTGACTTGTTATAATTTGTATATCCGAAAAAATT [TGCATGCA_negctrl_site456] | 9.51
TACATATTTTGTATATATTATTTATTTTATTAGTTT [XGTACX_negctrl_site85] | 9.51
ACTATTATTAAAAATTGTACTTTCTATAAATTTTTT [XGTACX_site7825] | 9.72
ATAACATCAGTATTATGTACATATGTAGGTAAATAA [XGTACX_site7066] | 9.99
CGTTATTATACACATACACACAGGAATAAAAAATTA [CACACA_site7373] | 9.91
ATTTTGTGTAGTGATGCATGTTATATATATATTTGA [TGCATGCA_site422] | 9.83
AGAAACATATGGTAGTGTACTGTAAATTTATTCTTT [XGTACX_site8602] | 9.76
TTTTATCAAATATTTATTTTATACATAAATATTTAT [XGTACX_negctrl_site528] | 9.74
CTTTTTATTTAGGAGGTGCATGTAATACGGAACATA | 9.35
TTTTGTTTAATATTCACACATATATATTTTTTATTT [CACACA_site5496] | 9.84
CATACTGTTATAAAATGTACGCATATACACACACAT [XGTACX_site7256] | 10.4
ATTTGTTATATATTCTTTTATGTTAATAATTCGAAT [CACACA_negctrl_site378] | 9.6
TATGAATAAAAAAGAAGTACAAATTATATGAACGCA [XGTACX_site3018] | 9.95
AAAAAATACAAACACACACACACACCCATATATATA [CACACA_site3560] | 11
